Read counts are not given, so values of variants with three or more changes are uncertain.
B1: LINE1-mini (parent)
chain: GGCAGAGCUCAACACAGCGUGGCAAAGUGGCUGUGGCUAGACUGCC

Variants of: B1
Experiment: self-cleavage, relative activity (ratio to wild type); higher = more cleavage; in vitro, sequencing; the parent is a self-cleaving ribozyme

Row | Variant | self-cleavage
1 | U9A C13A U32C U34A C46U | 0.36
2 | C8U G17U G27C C42U | 0.05
3 | U9A G27A G36A | 1.02
4 | C8U C13U A26G | 0.27
5 | U9A G17A G40U | 0.28
6 | U9A A14G U34A | 0.05
7 | C8U C10G A11C A14G | 0.01
8 | U9A C31G G35U | 0.02
9 | U9A G19C A24G C31A | 0
10 | C8G G27U U34C | 0.07
11 | C8G U38C C46G | 0.05
12 | U9A C23U C37A | 0.08
13 | C8U A12G A14G C45A | 0.01
14 | U9A C10U G22U G27U | 0.09
15 | C8G U20C U34A G44C | 0.02
16 | C8U C10A C37U | 0.08
17 | U9A A25C A41G | 0.03
18 | C8U C10U G22C A24G | 0.02
19 | C8U U20G G30U C31A | 0.16
20 | C8U G17A G35A | 0.02
21 | C8U A11C C15U G17A C37G C42G | 0.01

Row | Variant | self-cleavage
22 | C8U C10A A16U C37G G44U | 0.03
23 | C8U G19C C23U G40A A41G | 0.17
24 | C8U G19C U38C | 0.02
25 | U9A U43C C46G | 0
26 | C8U G27A G40U | 0.97
27 | C8U G29C C31U G35U U43A | 0.14
28 | C8U C18A G33C G35U G36A | 0.15
29 | C8G G36A G44A | 0.04
30 | C8U C13A U32G G40C | 0.07
31 | U9A A16C C18A | 0.02
32 | U9A C13A U32G C37A | 0.52
33 | U9A G17U G27A G33U | 0.08
34 | U9A C37A A41C | 0.04
35 | C8U A16G A24U C45A | 0.03
36 | C8U A12G A14C C46G | 0.04
37 | U9A A25U U32G G36A | 0.28
38 | C8G G27C U28C G36U | 0.11
39 | U9A C18A A39U | 0.02
40 | U9A C37U A39C | 0.4
41 | C8U A26C G30C U32A | 0.15
42 | U9A C18G A25U A26U U28A U32C | 0.08

Row | Variant | self-cleavage
43 | U9A A11C A24C G27U | 0.03
44 | C8U A12C C15A G35U | 0.01
45 | C8U A11G U20G | 0.02
46 | C8G U9G G29U U32A A41U | 0.01
47 | C8U G33U A41C | 0.12
48 | C8U C10G A12G A39C | 0.04
49 | C8U A11G U20G G21U G22A G35C | 0.02
50 | C8U G21A U28G G29C C46G | 0.01
51 | C8U C13G G22U G30A G40A A41U G44U | 0.15
52 | C8G U32C C45G | 0.08
53 | C8U C15G G21U U28A C31U A41G | 0.04
54 | C8G U20A G30C U34G A39U | 0
55 | U9A G29U C31A U34G | 0.04
56 | C8U G30U G40U | 0.02
57 | C8U A11U U38G C46A | 0.02
58 | C8U G21C G36A | 0.18
59 | C8U C42U U43C | 0.45
60 | C8U C31A U32C G33A | 0.1
61 | C8U A24G G27A | 0.19
62 | C8U G17C C31G | 0.09
63 | U9A C10G A26U G35U | 0.01

Row | Variant | self-cleavage
64 | U9A U20G U38A G40U | 0.1
65 | U9A C13U G22A G30A C37U | 0.2
66 | C8U A24G C42U | 0.25
67 | U9A A16G G22A G36C | 0.01
68 | C8U U9A A24C G36A C42U | 0.27
69 | U9A C18A U20C A26U C46U | 0.07
70 | C8U C15U G30A G40U | 0.1
71 | C8U A24C C37U | 0.22
72 | C8U A16G G21U U28A C31A | 0.04
73 | C8U A25U G27U A39U C46G | 0
74 | U9A G17C G27C | 0.15
75 | C8U U20C G30A | 0.01
76 | C8U C18A G30C | 0.56
77 | C8U A11C G19A U20C A25U A39C | 0
78 | U9A G33C G40U | 0.14
79 | C8U A12G C46G | 0.12
80 | U9A G27C C31U C46A | 0
81 | C8U C10A A14U U28C G33C | 0.03
82 | C8U G30A G36C A39U | 0.06
83 | U9A G21C A26C | 0.12
84 | C8U A11C A25G | 0
